From the supplement of paper PMC3334620
In all, about 33,000 sequences were measured (“E-score (-0.5 to 0.5)”: median about -0.053, highest 2% from about 0.37 on). The list shows a part of the results.

Each sequence was assayed against Hap1 (UniProt P0CE41) (assay: PBM E-score (8-mer binding enrichment) (E-score (-0.5 to 0.5)); higher = stronger / more preferred TF binding; most listed sequences are background and not binding sites). Details: protein concentration: 200 nM; construct: GST-DNA-binding domain.
How it was run: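 Yeast transcription factors carrying a GST tag, as full-length proteins or DNA-binding domains, were produced by PURExpress in vitro transcription/translation. About 100-200 nM protein was applied to universal all-10-mer Agilent arrays, double-stranded by primer extension on fresh or once-stripped slides. Bound protein was detected with fluorescent anti-GST, and scans were normalised with masliner. The Universal PBM Analysis Suite gave each ungapped eight-base word, pooled with its reverse complement, an E-score, a modified Wilcoxon-Mann-Whitney statistic.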

UniProt P0CE41, sequence (P0CE41 whole entry, the tested form may be a part): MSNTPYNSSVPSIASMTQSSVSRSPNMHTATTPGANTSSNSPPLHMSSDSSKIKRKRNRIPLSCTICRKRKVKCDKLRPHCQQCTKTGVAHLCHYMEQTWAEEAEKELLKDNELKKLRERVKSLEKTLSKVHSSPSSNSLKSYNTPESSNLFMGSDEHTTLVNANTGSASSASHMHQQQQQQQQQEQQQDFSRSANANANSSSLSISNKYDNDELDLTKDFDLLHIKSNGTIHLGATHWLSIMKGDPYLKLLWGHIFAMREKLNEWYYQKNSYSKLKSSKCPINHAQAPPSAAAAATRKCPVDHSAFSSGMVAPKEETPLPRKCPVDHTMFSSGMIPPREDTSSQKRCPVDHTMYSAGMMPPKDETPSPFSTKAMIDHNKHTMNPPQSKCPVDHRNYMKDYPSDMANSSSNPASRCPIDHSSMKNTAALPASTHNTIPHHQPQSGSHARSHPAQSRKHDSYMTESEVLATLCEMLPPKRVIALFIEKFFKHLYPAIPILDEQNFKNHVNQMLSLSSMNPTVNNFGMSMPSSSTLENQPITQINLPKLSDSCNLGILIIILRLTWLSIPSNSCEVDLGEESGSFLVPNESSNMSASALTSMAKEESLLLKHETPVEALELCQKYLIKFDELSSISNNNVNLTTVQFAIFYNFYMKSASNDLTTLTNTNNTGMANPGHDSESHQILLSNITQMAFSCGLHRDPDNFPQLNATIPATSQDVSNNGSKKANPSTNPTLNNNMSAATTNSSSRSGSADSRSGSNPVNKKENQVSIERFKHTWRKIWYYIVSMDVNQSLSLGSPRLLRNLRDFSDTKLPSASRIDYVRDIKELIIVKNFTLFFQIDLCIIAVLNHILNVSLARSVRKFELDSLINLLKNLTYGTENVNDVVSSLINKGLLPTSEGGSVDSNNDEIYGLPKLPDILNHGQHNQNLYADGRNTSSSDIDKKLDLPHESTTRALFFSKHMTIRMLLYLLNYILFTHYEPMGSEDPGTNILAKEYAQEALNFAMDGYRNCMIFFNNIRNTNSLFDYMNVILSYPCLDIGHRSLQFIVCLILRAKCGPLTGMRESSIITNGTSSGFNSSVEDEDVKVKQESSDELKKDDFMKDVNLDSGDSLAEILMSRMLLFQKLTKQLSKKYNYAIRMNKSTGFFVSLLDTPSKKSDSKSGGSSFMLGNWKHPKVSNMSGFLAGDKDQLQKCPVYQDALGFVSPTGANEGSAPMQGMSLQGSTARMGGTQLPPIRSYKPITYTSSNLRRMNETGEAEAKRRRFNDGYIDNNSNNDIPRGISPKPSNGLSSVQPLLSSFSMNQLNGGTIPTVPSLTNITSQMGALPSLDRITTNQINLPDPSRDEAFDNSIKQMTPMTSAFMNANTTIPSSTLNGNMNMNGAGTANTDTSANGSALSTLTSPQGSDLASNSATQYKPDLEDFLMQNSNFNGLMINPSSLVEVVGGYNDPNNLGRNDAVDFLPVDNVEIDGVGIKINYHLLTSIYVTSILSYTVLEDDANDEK

Compared with CTATATCA, AAATTCGG is higher in “PBM E-score” value: -0.183 for the first, 0.24 for the second.

First: GGTGGACA
Second: ATAGAGTG
The “PBM E-score” value of the first is higher: 0.128 for the first, -0.0777 for the second.

Compared with ACGTTCGA, AAAATGTA is higher in “PBM E-score” value: -0.21 for the first, -0.0358 for the second.

First: ATGACCAG
Second: AGATGAAC
The “PBM E-score” value of the first is lower: -0.198 for the first, -0.115 for the second.

Compared with CGGGGTTA, GGTTGCGA is lower in “PBM E-score” value: 0.485 for the first, -0.0421 for the second.

Compared with AAGTTGCG, AATGTTGC is lower in “PBM E-score” value: -0.0881 for the first, -0.098 for the second.

Compared with ATAGCAAT, CCCGCTCC is lower in “PBM E-score” value: -0.00748 for the first, -0.119 for the second.

Going from CAGGCACG to AGATTGGC, the “PBM E-score” value falls from -0.0709 to -0.0735.

Going from AAGGCCGC to AGAGCAGG, the “PBM E-score” value falls from 0.135 to -0.16.

Going from TATCGAGA to CCCAGGGG, the “PBM E-score” value falls from -0.129 to -0.255.

First: ACAAGACT
Second: GGTAGCCA
The “PBM E-score” value of the first is higher: -0.232 for the first, -0.261 for the second.

Going from CTTCGAGC to AAAATCTC, the “PBM E-score” value falls from 0.108 to -0.105.

First: CTGACCAC
Second: GCCAAGAC
The “PBM E-score” value of the first is higher: -0.0825 for the first, -0.191 for the second.

Compared with ATTCGCCA, CGGCTCAA is higher in “PBM E-score” value: -0.0888 for the first, 0.254 for the second.

Compared with TCACCTCA, TATTGTAA is higher in “PBM E-score” value: -0.177 for the first, -0.143 for the second.

First: GGATTCAC
Second: ATTGGCTG
The “PBM E-score” value of the first is higher: 0.123 for the first, -0.207 for the second.

First: AGGCCTCC
Second: GCTAACCA
The “PBM E-score” value of the first is lower: -0.188 for the first, -0.163 for the second.

First: AGCCCTAG
Second: ATGCTAAT
The “PBM E-score” value of the first is lower: -0.308 for the first, -0.0668 for the second.

Going from CATTAAAA to CGTGATGA, the “PBM E-score” value falls from 0.111 to -0.246.

Compared with GAGCTTAC, CGCCGGGC is higher in “PBM E-score” value: 0.0306 for the first, 0.332 for the second.

First: GGAGGCCC
Second: AAGTCGCT
The “PBM E-score” value of the first is higher: 0.0229 for the first, -0.0241 for the second.

First: CCCGGGGC
Second: ATGTACAC
The “PBM E-score” value of the first is higher: 0.33 for the first, -0.246 for the second.

Going from GAACCATC to CACGCGGA, the “PBM E-score” value rises from -0.00394 to 0.312.

Compared with CCCTGACG, AACTCAGT is lower in “PBM E-score” value: -0.0305 for the first, -0.0361 for the second.

First: GCGGATAA
Second: GACCAAAA
The “PBM E-score” value of the first is higher: 0.294 for the first, 0.0136 for the second.

First: CCACCCAG
Second: CCGCCAAA
The “PBM E-score” value of the first is lower: -0.0588 for the first, 0.0722 for the second.

Compared with AACTACAC, TACACAAA is higher in “PBM E-score” value: -0.0317 for the first, -0.0107 for the second.

First: GGGGTAGA
Second: GCTCTTAA
The “PBM E-score” value of the first is lower: 0.106 for the first, 0.163 for the second.

Compared with CCTGTGAA, GATAGTCA is higher in “PBM E-score” value: -0.172 for the first, 0.00299 for the second.

Compared with GTATGGAA, AATAGCTA is higher in “PBM E-score” value: -0.156 for the first, -0.119 for the second.

Going from ATCTATAA to AAAGCATA, the “PBM E-score” value falls from -0.131 to -0.195.

Going from GGGCTCCA to CATATTCC, the “PBM E-score” value rises from -0.165 to 0.0564.

Going from CAGGTACA to ACCTGCCC, the “PBM E-score” value rises from -0.164 to -0.0981.

First: AATGCCAA
Second: AACGGTCC
The “PBM E-score” value of the first is lower: -0.159 for the first, 0.244 for the second.

First: AAACAAGC
Second: AGCACCTG
The “PBM E-score” value of the first is higher: 0.0857 for the first, -0.232 for the second.

First: GCTATACC
Second: CGCTCACC
The “PBM E-score” value of the first is higher: 0.106 for the first, -0.0406 for the second.

First: GGCCCGAC
Second: AACTCTTA
The “PBM E-score” value of the first is higher: 0.275 for the first, -0.0718 for the second.

Compared with GACATCGA, ATCGAGGA is lower in “PBM E-score” value: 0.00885 for the first, -0.118 for the second.

Compared with CGCACCGC, ATGTATTA is lower in “PBM E-score” value: 0.0938 for the first, -0.0837 for the second.

First: TACTCGCA
Second: AAGCTACC
The “PBM E-score” value of the first is lower: -0.0609 for the first, -0.0294 for the second.

Going from ACACTCAA to GTTACGGA, the “PBM E-score” value rises from -0.126 to 0.239.

Compared with AAGGTGCG, CCGGGACA is higher in “PBM E-score” value: 0.0297 for the first, 0.299 for the second.

First: GCTGTACC
Second: AGGATTAG
The “PBM E-score” value of the first is higher: -0.0479 for the first, -0.165 for the second.

First: ACTCTCTG
Second: ATTTGTTC
The “PBM E-score” value of the first is lower: -0.271 for the first, 0.058 for the second.

First: CGCACGCC
Second: GGTCGTAA
The “PBM E-score” value of the first is lower: -0.0211 for the first, 0.131 for the second.

Going from GAGTGTCC to AATAACCT, the “PBM E-score” value falls from 0.06 to -0.222.

Compared with ACATTCAA, AGGCATAC is lower in “PBM E-score” value: -0.0646 for the first, -0.226 for the second.

Going from AGCTTACC to CCATCATA, the “PBM E-score” value falls from 0.0107 to -0.0751.

Going from GAGGTGAC to ACGTCACG, the “PBM E-score” value falls from -0.0273 to -0.0369.

Compared with CGGAATGC, AATGGCCC is lower in “PBM E-score” value: 0.281 for the first, -0.0435 for the second.

Going from GAGACAAC to AAAGCAGT, the “PBM E-score” value falls from 0.0536 to -0.164.

Compared with ACTCAGAA, AGGTTAAT is lower in “PBM E-score” value: 0.00152 for the first, -0.0871 for the second.

Compared with AACGAGGG, CTTATCTC is higher in “PBM E-score” value: -0.249 for the first, 0.196 for the second.

Going from CAGACCTG to GAAGGCTA, the “PBM E-score” value rises from -0.165 to -0.148.

Compared with CTATGAAC, GCTGAAAA is higher in “PBM E-score” value: -0.192 for the first, 0.0469 for the second.

Going from AACACCAC to AGTAGTCA, the “PBM E-score” value falls from -0.109 to -0.282.

First: CGGATCCA
Second: AGAGGACT
The “PBM E-score” value of the first is higher: 0.318 for the first, -0.304 for the second.

Going from AGGTTTAC to ATCCGATA, the “PBM E-score” value rises from -0.146 to 0.453.

First: GGGTATCA
Second: CACGACAA
The “PBM E-score” value of the first is higher: -0.0318 for the first, -0.156 for the second.

Compared with CTCCCCTC, AAGTACAA is lower in “PBM E-score” value: 0.0651 for the first, -0.137 for the second.

First: CTGAGAAA
Second: CTCTTTTC
The “PBM E-score” value of the first is lower: -0.254 for the first, -0.0717 for the second.

Compared with GACGTGTA, AACACGAA is higher in “PBM E-score” value: -0.135 for the first, 0.116 for the second.

Going from CTCCCGGA to AAGATGCG, the “PBM E-score” value falls from 0.376 to 0.0191.

First: TCGATCCA
Second: ATGCGCGA
The “PBM E-score” value of the first is lower: -0.0724 for the first, 0.188 for the second.

First: ACTGGAGA
Second: ATCACAAG
The “PBM E-score” value of the first is higher: -0.0459 for the first, -0.208 for the second.

Going from ATCAGCAA to AAAGACCC, the “PBM E-score” value rises from -0.0616 to 0.0101.

First: ATGCTTGA
Second: TGACATCA
The “PBM E-score” value of the first is higher: -0.0593 for the first, -0.076 for the second.

First: ACACGTTC
Second: ACCATCGA
The “PBM E-score” value of the first is higher: -0.103 for the first, -0.25 for the second.

Compared with GTCAGCAA, AGCCATTA is higher in “PBM E-score” value: -0.157 for the first, 0.0356 for the second.

Going from AAGAAACC to TAATTAGA, the “PBM E-score” value falls from 0.11 to 0.0224.

Compared with AATGCCGG, CATAGGCC is lower in “PBM E-score” value: 0.384 for the first, 0.0871 for the second.

Compared with CTACATAA, GTTGCAAC is higher in “PBM E-score” value: -0.151 for the first, -0.0181 for the second.

Compared with TATAACCA, CTAAAGTC is lower in “PBM E-score” value: -0.0424 for the first, -0.127 for the second.

Compared with CCTGGAGC, ACTATTAC is higher in “PBM E-score” value: -0.197 for the first, -0.00957 for the second.

Compared with ACGGCCGG, AATCTTGC is lower in “PBM E-score” value: 0.392 for the first, -0.0682 for the second.

Going from TAAGCGAA to ACATTTGA, the “PBM E-score” value rises from -0.0435 to 0.0244.

Compared with GGCTCAAA, CCAACCTC is lower in “PBM E-score” value: 0.134 for the first, 0.0408 for the second.

Compared with ACTCGCCC, AAGAGCTA is lower in “PBM E-score” value: 0.173 for the first, -0.0798 for the second.

Going from CTTGGCGA to AGACCAAC, the “PBM E-score” value falls from -0.147 to -0.198.

Compared with CAAGGATG, GCGATCAC is higher in “PBM E-score” value: -0.287 for the first, 0.0413 for the second.

First: AAAAATAT
Second: ATTGATTG
The “PBM E-score” value of the first is lower: -0.00656 for the first, 0.122 for the second.

Compared with GCTTTAAC, ATAAATTG is higher in “PBM E-score” value: -0.039 for the first, 0.03 for the second.

First: CCATTCCC
Second: CGTGAACG
The “PBM E-score” value of the first is higher: 0.0749 for the first, -0.133 for the second.

First: CTAGGATA
Second: ACGCTATG
The “PBM E-score” value of the first is higher: -0.0845 for the first, -0.122 for the second.

Compared with AAAACGTA, CGTTCACC is higher in “PBM E-score” value: -0.274 for the first, 0.0701 for the second.

First: GACTTTGC
Second: AGTATCTC
The “PBM E-score” value of the first is lower: 0.0365 for the first, 0.109 for the second.
